Source: paper PMC7819943, “Rice protein-binding microarrays: a tool to detect cis-acting elements near promoter regions in rice”
The other results are listed elsewhere or left out.

The sequences below were run against T1, OsWOX13 (Oryza sativa, UniProt Q5QMM3 1-267) (assay: protein-binding microarray (RPBM); PBS, 2% BSA, 51.3 ng/ul salmon testes DNA, 50 uM zinc acetate, 200 nM TF, 25 C, 1 h; high values mean tight binding). Settings: protein: recombinant; tags: N-terminal polyhistidine and DsRed monomer fusion (pET32a); label: CyDye5-dUTP incorporated in the synthesized complementary strand; 3' TTTTT single-stranded linker to array surface; dsDNA, one strand shown.
T1 sequence: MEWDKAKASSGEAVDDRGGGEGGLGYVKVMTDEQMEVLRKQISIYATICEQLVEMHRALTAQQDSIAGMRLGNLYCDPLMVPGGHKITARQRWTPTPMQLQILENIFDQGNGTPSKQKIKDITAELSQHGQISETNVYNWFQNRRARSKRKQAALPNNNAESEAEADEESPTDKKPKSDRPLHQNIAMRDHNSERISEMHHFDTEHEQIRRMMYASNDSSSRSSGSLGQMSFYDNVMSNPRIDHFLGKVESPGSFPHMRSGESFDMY
Outline: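 In PBS with 2% BSA, salmon testes DNA and 50 µM zinc acetate, 200 nM protein was incubated on a custom Agilent array at 25 °C for 1 h and then washed off. The array had been made double-stranded by primer extension with Cy5-dUTP and blocked with 2% BSA. The proteins were transcription factors fused N-terminally to polyhistidine and DsRed, expressed in E. coli BL21-CodonPlus and purified on Ni–NTA. The binding signal is per-feature fluorescence intensity (arbitrary units) from an Axon 4000B scanner.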

Sequence | binding signal
GTGGAATAATTTGTAATTATGATTGTCATACTATACTGCTCGGAGTCACCTAGTGCAG | 47500 fluorescence intensity (a.u.)
AAGTAAAATAATTTATTCAAATACTAGGTCATTTATAATGCGGAGTCACCTAGTGCAG | 3860 fluorescence intensity (a.u.)
TACACAGATTTCATGTAAATTGCAAGACGAATCTTTTAAGCGGAGTCACCTAGTGCAG | 6670 fluorescence intensity (a.u.)
CTGAATAGTTGAATGATTTGTTACGATTATTTTGATGGTACGGAGTCACCTAGTGCAG | 16700 fluorescence intensity (a.u.)
ACTTCCAGTAATTCCATTAAATTGTGATCTATCTAATGGCCGGAGTCACCTAGTGCAG | 4670 fluorescence intensity (a.u.)
CATGAGTAAATTGTATTATTGCATCCTCACGTGCATGTCTCGGAGTCACCTAGTGCAG | 5540 fluorescence intensity (a.u.)
TTTCATTCGATGGATTGATTCATCGCCCAAGCTAACCATGCGGAGTCACCTAGTGCAG | 4590 fluorescence intensity (a.u.)
ATCGTAGTGATTAAGTTTCAATTATCTGAACAAACCAACACGGAGTCACCTAGTGCAG | 14800 fluorescence intensity (a.u.)
ACTAAATTTAGGATTTGGAGCTCTACCAAACAGGCCAGGCCGGAGTCACCTAGTGCAG | 10400 fluorescence intensity (a.u.)
ATTCCTCATTAATTAGCCAAATCACCGAGGGGCTCCGCACCGGAGTCACCTAGTGCAG | 15900 fluorescence intensity (a.u.)
CCTGATAGACTTCTCCACGTTCTTCTCCTCCCTCTGCACACGGAGTCACCTAGTGCAG | 39100 fluorescence intensity (a.u.)
CGATGATTGGGCAAAGTCTTGGCTCAGTTTATCTTGCATGCGGAGTCACCTAGTGCAG | 49200 fluorescence intensity (a.u.)
ACCCCACTAATTTTATTATTGTGCATATATAATATAATATCGGAGTCACCTAGTGCAG | 4370 fluorescence intensity (a.u.)
ACCCCTTAAATAAATTAAACAATCTAGCTTGGACAACATTCGGAGTCACCTAGTGCAG | 13000 fluorescence intensity (a.u.)
TAGAATTGAACATAACCGAGTATTATAAATCTGAATATGGCGGAGTCACCTAGTGCAG | 6660 fluorescence intensity (a.u.)
CCAGGATAGACAACATGTCTAACTTACGATTACTCTGCAACGGAGTCACCTAGTGCAG | 3800 fluorescence intensity (a.u.)
AATTTGAAATTTCAAACTTAATTTTAACATTGATTTTGAGCGGAGTCACCTAGTGCAG | 6660 fluorescence intensity (a.u.)
TGTATGCGATTTGATTAAACTTTTAAAATGTTGATTATTACGGAGTCACCTAGTGCAG | 4680 fluorescence intensity (a.u.)
AGAAACCTAATTAGTGGACCTAAGCACACTTCATGATCATCGGAGTCACCTAGTGCAG | 9380 fluorescence intensity (a.u.)
AAATTTAAATTGTCTAGAAGAGCTTTTGTCTATTTTGGGGCGGAGTCACCTAGTGCAG | 5440 fluorescence intensity (a.u.)
TTGATCAGTAATTTGTAATAGAGGTAATTTGCTGAAATTCCGGAGTCACCTAGTGCAG | 16700 fluorescence intensity (a.u.)
TTAATTATCTCTAGGGGTGAAATTATTTGACAAGGCGACACGGAGTCACCTAGTGCAG | 3580 fluorescence intensity (a.u.)
ATAAATTAAAATTGCACATTGCATAGCCTTATCAATGTGTCGGAGTCACCTAGTGCAG | 26900 fluorescence intensity (a.u.)
CTTACATGTTAATTAACTTTAAAAGTTAGTAGACATCAACCGGAGTCACCTAGTGCAG | 14900 fluorescence intensity (a.u.)
GATGTTGGATCTCGACTGTAATTGATCAGTTTCATGAAGACGGAGTCACCTAGTGCAG | 8240 fluorescence intensity (a.u.)
TAAGAGTTAATCTTGATTGGTTGAATGTAGTGTATTTAATCGGAGTCACCTAGTGCAG | 13400 fluorescence intensity (a.u.)
CACCACGCGTCAGTTTATCAATCTGCATGTTCGCCCTTCTCGGAGTCACCTAGTGCAG | 4990 fluorescence intensity (a.u.)

Sequence | binding signal
ATTGAGCAAATTTGCACTTATTTGTGTTCAGATATATCGTCGGAGTCACCTAGTGCAG | 4790 fluorescence intensity (a.u.)
ACGTCAAATCAATCTCTGCTAATAATGCAAGGCACCACTGCGGAGTCACCTAGTGCAG | 15000 fluorescence intensity (a.u.)
GGTGTAATAATGATGTGATTACGTCGCATCTAACTTGTGACGGAGTCACCTAGTGCAG | 16100 fluorescence intensity (a.u.)
TAAATATGCCTATGATTGTTTCTTCAAACCCAGACTTCTGCGGAGTCACCTAGTGCAG | 7060 fluorescence intensity (a.u.)
CGGCATCCAAATTGGCAACAAATAGTTCGTGTGACGTTAACGGAGTCACCTAGTGCAG | 3550 fluorescence intensity (a.u.)
TGTGATAGGGAAATGCTACGGGACGGTATCCTGTTCGAACCGGAGTCACCTAGTGCAG | 5250 fluorescence intensity (a.u.)
TTTTATGATTGGTGGATACGTAGAGTGGATTGTGAGGTTACGGAGTCACCTAGTGCAG | 36100 fluorescence intensity (a.u.)
ATCCGATGTTTGTTAATTTGATGCGGTTTAGCTGGCAGCTCGGAGTCACCTAGTGCAG | 4080 fluorescence intensity (a.u.)
AACAAAACAAATTACAGATTCCGCTTGTAAACTGCGAGACCGGAGTCACCTAGTGCAG | 5270 fluorescence intensity (a.u.)
ATTCAATTACTCTGGATTTTAGTTATTCTCATGAAACTTCCGGAGTCACCTAGTGCAG | 7820 fluorescence intensity (a.u.)
TTTCATTGTAATATAATTATGTAAGATCTTGTTCTAAAGACGGAGTCACCTAGTGCAG | 4690 fluorescence intensity (a.u.)
AGATATTGATTATGTTTAGCCATGTGGCTCCTTAAATGGGCGGAGTCACCTAGTGCAG | 32700 fluorescence intensity (a.u.)
ATTCGTCTCGCAAATTAGCCGTAATATGTACAATTAGCTTCGGAGTCACCTAGTGCAG | 3330 fluorescence intensity (a.u.)
AAGTAATCAAATAGGATCCTAGATCTAAACTGCTTACTTGCGGAGTCACCTAGTGCAG | 3440 fluorescence intensity (a.u.)
CGTGTGATTCAAACCGATCCCAATCACCAAACTGCGCCGCCGGAGTCACCTAGTGCAG | 4140 fluorescence intensity (a.u.)
TTTGATGACCGACAGGCAAGTCTCCTTGATTTCCATCGAGCGGAGTCACCTAGTGCAG | 5200 fluorescence intensity (a.u.)
TGCATGATTATGTGTTGCAAATGCTCCTTACTCCCGTAGCCGGAGTCACCTAGTGCAG | 20900 fluorescence intensity (a.u.)
GCTGATTGCCATTGATTCATATTCATTGTGTGCCATCTGGCGGAGTCACCTAGTGCAG | 58800 fluorescence intensity (a.u.)
ACCCAGCCAATTGACAATTCGATGGTGACTAATGGTGAACCGGAGTCACCTAGTGCAG | 10400 fluorescence intensity (a.u.)
CATGGCATTAATTGTTACCCCTCCTGAGTCCTGATCATGGCGGAGTCACCTAGTGCAG | 10600 fluorescence intensity (a.u.)
AAGCGTTAATATTGATTGTGATTAGCCGCCGTGGGCAACACGGAGTCACCTAGTGCAG | 36300 fluorescence intensity (a.u.)
AGACGGTGGACATGAAATTGATGAGTAAAGAACCTAATTGCGGAGTCACCTAGTGCAG | 3780 fluorescence intensity (a.u.)
CCTGTTAATTGAGCAGGAGCCAACAACCCAACTATAACCCCGGAGTCACCTAGTGCAG | 34600 fluorescence intensity (a.u.)
AATGACAGGAAAGGAACTAGGGCTAGGGAAGACACAAACTCGGAGTCACCTAGTGCAG | 4620 fluorescence intensity (a.u.)
ACCCACGAATTAAATAAATTGGCTATAGGTGACTATCCATCGGAGTCACCTAGTGCAG | 15000 fluorescence intensity (a.u.)
TTTGATATCACTCATAGATGATGAAGGTTAAACAGTGCCTCGGAGTCACCTAGTGCAG | 4090 fluorescence intensity (a.u.)
CGATTTGTATTGATAGGAAATTTGTTAAGACGGGTTAACACGGAGTCACCTAGTGCAG | 15100 fluorescence intensity (a.u.)
